Results are given in words; binding and its absence hold for the method and conditions named. For part of these data: In cells and extracts the contact can be indirect. Some results given as binding are weak or reduced against the parent protein; the word gives no strength. Where a sequence is shown, tags or fusion partners need not be part of it.

Here are results for six molecules from publication PMC8462813.

In experiment [1] the target is T1, BD-PRR5 (PSEUDO-RESPONSE REGULATOR5, full length, fused to the Gal4 DNA-binding domain) (Arabidopsis thaliana) (UniProt Q6LA42).
T1 sequence: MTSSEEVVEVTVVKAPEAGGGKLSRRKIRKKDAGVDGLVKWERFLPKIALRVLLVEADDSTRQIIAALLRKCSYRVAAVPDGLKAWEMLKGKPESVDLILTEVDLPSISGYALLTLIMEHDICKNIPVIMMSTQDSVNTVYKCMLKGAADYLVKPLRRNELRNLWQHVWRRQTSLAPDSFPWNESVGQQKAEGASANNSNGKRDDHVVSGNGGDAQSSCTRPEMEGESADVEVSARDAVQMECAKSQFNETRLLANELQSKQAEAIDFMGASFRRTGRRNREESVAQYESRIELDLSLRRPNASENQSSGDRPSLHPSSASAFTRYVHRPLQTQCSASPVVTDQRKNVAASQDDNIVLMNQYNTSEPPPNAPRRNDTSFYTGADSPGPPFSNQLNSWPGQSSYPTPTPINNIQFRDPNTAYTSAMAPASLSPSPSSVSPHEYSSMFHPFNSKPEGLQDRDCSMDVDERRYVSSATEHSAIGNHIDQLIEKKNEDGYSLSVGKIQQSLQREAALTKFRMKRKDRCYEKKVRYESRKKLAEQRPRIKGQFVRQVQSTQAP
Kind of experiment: two-hybrid; Gal4 system; baits in pGBKT7 (BD), preys in pGADT7 (AD), cotransformed into yeast AH109; growth on dropout medium lacking Leu, Trp, His and Ade for 4 days.

Experiment [2] has as its target T2, PRR5-nYFP (Arabidopsis thaliana) (UniProt Q6LA42).
T2 sequence: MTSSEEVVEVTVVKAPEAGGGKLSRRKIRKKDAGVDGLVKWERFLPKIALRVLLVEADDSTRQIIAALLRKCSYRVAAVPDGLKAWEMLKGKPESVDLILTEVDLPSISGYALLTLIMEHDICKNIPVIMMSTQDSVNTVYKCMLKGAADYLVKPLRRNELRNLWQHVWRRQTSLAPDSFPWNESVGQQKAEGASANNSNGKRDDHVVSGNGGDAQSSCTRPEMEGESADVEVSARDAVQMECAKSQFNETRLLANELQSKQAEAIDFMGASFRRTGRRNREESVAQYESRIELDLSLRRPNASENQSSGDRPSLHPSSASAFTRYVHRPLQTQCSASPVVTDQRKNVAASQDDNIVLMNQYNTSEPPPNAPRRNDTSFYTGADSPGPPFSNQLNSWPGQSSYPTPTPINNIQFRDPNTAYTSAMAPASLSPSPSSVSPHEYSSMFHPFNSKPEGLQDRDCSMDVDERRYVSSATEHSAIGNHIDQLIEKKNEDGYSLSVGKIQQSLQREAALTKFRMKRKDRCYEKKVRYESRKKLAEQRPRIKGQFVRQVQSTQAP
Kind of experiment: split reporter; BiFC with cYFP and nYFP fusions transiently coexpressed in N. benthamiana leaf cells; YFP fluorescence read by confocal microscopy 40-52 h after infiltration.

For experiment [3], the target named is T3, PRR7-nYFP (Arabidopsis thaliana) (UniProt Q93WK5).
T3 sequence: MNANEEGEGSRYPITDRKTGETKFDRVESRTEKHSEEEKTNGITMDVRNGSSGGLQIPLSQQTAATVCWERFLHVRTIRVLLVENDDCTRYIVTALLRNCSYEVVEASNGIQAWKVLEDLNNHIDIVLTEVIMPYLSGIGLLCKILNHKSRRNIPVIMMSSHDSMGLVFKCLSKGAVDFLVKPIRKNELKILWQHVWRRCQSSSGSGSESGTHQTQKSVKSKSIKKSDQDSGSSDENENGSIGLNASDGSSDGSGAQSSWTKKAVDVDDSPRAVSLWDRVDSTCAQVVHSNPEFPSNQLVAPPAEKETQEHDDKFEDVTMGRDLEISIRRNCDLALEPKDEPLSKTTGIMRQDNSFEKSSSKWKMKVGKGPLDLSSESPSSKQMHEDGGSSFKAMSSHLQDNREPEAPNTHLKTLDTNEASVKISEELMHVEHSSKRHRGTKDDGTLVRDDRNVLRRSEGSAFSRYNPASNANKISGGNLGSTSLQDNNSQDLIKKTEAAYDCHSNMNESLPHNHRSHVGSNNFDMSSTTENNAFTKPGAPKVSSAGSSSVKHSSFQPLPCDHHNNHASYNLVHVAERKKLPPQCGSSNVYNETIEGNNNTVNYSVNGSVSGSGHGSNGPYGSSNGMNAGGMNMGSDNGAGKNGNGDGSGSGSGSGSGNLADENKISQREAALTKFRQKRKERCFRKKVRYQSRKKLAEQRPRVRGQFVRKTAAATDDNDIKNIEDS
The experiment is described as above.

The target in experiment [4] is T4, BD-PRR7 (PSEUDO-RESPONSE REGULATOR7, full length, fused to the Gal4 DNA-binding domain) (Arabidopsis thaliana) (UniProt Q93WK5).
T4 sequence: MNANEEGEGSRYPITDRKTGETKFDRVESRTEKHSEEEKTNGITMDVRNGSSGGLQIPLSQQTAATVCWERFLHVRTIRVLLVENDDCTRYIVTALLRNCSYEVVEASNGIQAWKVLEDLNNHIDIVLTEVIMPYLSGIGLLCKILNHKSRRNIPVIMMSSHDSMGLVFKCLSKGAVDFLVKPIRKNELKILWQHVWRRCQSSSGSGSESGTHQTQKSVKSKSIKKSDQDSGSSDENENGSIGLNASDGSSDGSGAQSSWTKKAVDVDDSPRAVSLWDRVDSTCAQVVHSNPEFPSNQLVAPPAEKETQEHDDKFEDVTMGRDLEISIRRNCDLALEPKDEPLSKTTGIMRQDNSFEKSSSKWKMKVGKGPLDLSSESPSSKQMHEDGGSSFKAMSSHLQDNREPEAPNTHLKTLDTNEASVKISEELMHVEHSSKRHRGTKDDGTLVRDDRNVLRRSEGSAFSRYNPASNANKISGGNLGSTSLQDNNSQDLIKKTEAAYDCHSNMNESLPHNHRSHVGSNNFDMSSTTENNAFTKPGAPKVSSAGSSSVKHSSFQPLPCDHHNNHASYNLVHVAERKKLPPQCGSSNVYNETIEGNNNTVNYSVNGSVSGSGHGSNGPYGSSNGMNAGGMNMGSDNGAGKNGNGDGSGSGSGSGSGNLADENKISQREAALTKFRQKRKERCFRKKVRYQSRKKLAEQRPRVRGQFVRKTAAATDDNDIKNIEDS
Briefly: two-hybrid; Gal4 system; baits in pGBKT7 (BD), preys in pGADT7 (AD), cotransformed into yeast AH109; growth on dropout medium lacking Leu, Trp, His and Ade for 4 days.

B1: AD-ABI5^165-442 (domain or fragment, UniProt Q9SJN0 165-442)
chain: HRGGGSGNGGDSNGRSSSSNGQNNAQNGGETAARQPTFGEMTLEDFLVKAGVVREHPTNPKPNPNPNQNQNPSSVIPAAAQQQLYGVFQGTGDPSFPGQAMGVGDPSGYAKRTGGGGYQQAPPVQAGVCYGGGVGFGAGGQQMGMVGPLSPVSSDGLGHGQVDNIGGQYGVDMGGLRGRKRVVDGPVEKVVERRQRRMIKNRESAARSRARKQAYTVELEAELNQLKEENAQLKHALAELERKRKQQYFESLKSRAQPKLPKSNGRLRTLMRNPSCPL
For B1, the binding result in experiment [1] is on record as “binds”.

B2: ABI5-cYFP (protein, UniProt Q9SJN0 1-442)
chain: MVTRETKLTSEREVESSMAQARHNGGGGGENHPFTSLGRQSSIYSLTLDEFQHALCENGKNFGSMNMDEFLVSIWNAEENNNNQQQAAAAAGSHSVPANHNGFNNNNNNGGEGGVGVFSGGSRGNEDANNKRGIANESSLPRQGSLTLPAPLCRKTVDEVWSEIHRGGGSGNGGDSNGRSSSSNGQNNAQNGGETAARQPTFGEMTLEDFLVKAGVVREHPTNPKPNPNPNQNQNPSSVIPAAAQQQLYGVFQGTGDPSFPGQAMGVGDPSGYAKRTGGGGYQQAPPVQAGVCYGGGVGFGAGGQQMGMVGPLSPVSSDGLGHGQVDNIGGQYGVDMGGLRGRKRVVDGPVEKVVERRQRRMIKNRESAARSRARKQAYTVELEAELNQLKEENAQLKHALAELERKRKQQYFESLKSRAQPKLPKSNGRLRTLMRNPSCPL
In the case of B2, the binding result in experiment [2] and in experiment [3] was “binds” each time.

B3: AD-ABI5^350-442 (domain or fragment, UniProt Q9SJN0 350-442)
chain: PVEKVVERRQRRMIKNRESAARSRARKQAYTVELEAELNQLKEENAQLKHALAELERKRKQQYFESLKSRAQPKLPKSNGRLRTLMRNPSCPL
Regarding B3, the binding entry in experiment [1] is on record as “binds”.

B4: AD-ABI3 (full length, fused to the Gal4 activation domain) (protein, UniProt Q01593 1-720)
chain: MKSLHVAANAGDLAEDCGILGGDADDTVLMDGIDEVGREIWLDDHGGDNNHVHGHQDDDLIVHHDPSIFYGDLPTLPDFPCMSSSSSSSTSPAPVNAIVSSASSSSAASSSTSSAASWAILRSDGEDPTPNQNQYASGNCDDSSGALQSTASMEIPLDSSQGFGCGEGGGDCIDMMETFGYMDLLDSNEFFDTSAIFSQDDDTQNPNLMDQTLERQEDQVVVPMMENNSGGDMQMMNSSLEQDDDLAAVFLEWLKNNKETVSAEDLRKVKIKKATIESAARRLGGGKEAMKQLLKLILEWVQTNHLQRRRTTTTTTNLSYQQSFQQDPFQNPNPNNNNLIPPSDQTCFSPSTWVPPPPQQQAFVSDPGFGYMPAPNYPPQPEFLPLLESPPSWPPPPQSGPMPHQQFPMPPTSQYNQFGDPTGFNGYNMNPYQYPYVPAGQMRDQRLLRLCSSATKEARKKRMARQRRFLSHHHRHNNNNNNNNNNQQNQTQIGETCAAVAPQLNPVATTATGGTWMYWPNVPAVPPQLPPVMETQLPTMDRAGSASAMPRQQVVPDRRQGWKPEKNLRFLLQKVLKQSDVGNLGRIVLPKKEAETHLPELEARDGISLAMEDIGTSRVWNMRYRFWPNNKSRMYLLENTGDFVKTNGLQEGDFIVIYSDVKCGKYLIRGVKVRQPSGQKPEAPPSSAATKRQNKSQRNINNNSPSANVVVASPTSQTVK
B4: the binding entry in experiment [1] and in experiment [4] was “no binding” in each case.

B5: AD-ABI5^1-164 (domain or fragment, UniProt Q9SJN0 1-164)
chain: MVTRETKLTSEREVESSMAQARHNGGGGGENHPFTSLGRQSSIYSLTLDEFQHALCENGKNFGSMNMDEFLVSIWNAEENNNNQQQAAAAAGSHSVPANHNGFNNNNNNGGEGGVGVFSGGSRGNEDANNKRGIANESSLPRQGSLTLPAPLCRKTVDEVWSEI
With B5, the binding result in experiment [1] is “no binding”.

B6: ABI5^1-164-cYFP (domain or fragment, UniProt Q9SJN0 1-164)
chain: MVTRETKLTSEREVESSMAQARHNGGGGGENHPFTSLGRQSSIYSLTLDEFQHALCENGKNFGSMNMDEFLVSIWNAEENNNNQQQAAAAAGSHSVPANHNGFNNNNNNGGEGGVGVFSGGSRGNEDANNKRGIANESSLPRQGSLTLPAPLCRKTVDEVWSEI
Consider B6, for which the binding result in experiment [2] and in experiment [3] was “no binding” each time.
